Data: PMC4336329 (PLoS ONE, 2015)
Hit rate of the full screen: of about 310,000 compounds, about 14,000 (4.5%) showed an effect of 50% or more. The effect is printed as a negative number. The list shows a part of the results.

Target: human ether-à-go-go-related gene (hERG) potassium channel (human, UniProt Q12809)
Assay: primary screen, population patch clamp on CHO cells stably expressing hERG
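Note: peak tail current of the secondary pulse compared with the same well before compound.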

human ether-à-go-go-related gene (hERG) potassium channel, sequence (Q12809 whole entry, looked up): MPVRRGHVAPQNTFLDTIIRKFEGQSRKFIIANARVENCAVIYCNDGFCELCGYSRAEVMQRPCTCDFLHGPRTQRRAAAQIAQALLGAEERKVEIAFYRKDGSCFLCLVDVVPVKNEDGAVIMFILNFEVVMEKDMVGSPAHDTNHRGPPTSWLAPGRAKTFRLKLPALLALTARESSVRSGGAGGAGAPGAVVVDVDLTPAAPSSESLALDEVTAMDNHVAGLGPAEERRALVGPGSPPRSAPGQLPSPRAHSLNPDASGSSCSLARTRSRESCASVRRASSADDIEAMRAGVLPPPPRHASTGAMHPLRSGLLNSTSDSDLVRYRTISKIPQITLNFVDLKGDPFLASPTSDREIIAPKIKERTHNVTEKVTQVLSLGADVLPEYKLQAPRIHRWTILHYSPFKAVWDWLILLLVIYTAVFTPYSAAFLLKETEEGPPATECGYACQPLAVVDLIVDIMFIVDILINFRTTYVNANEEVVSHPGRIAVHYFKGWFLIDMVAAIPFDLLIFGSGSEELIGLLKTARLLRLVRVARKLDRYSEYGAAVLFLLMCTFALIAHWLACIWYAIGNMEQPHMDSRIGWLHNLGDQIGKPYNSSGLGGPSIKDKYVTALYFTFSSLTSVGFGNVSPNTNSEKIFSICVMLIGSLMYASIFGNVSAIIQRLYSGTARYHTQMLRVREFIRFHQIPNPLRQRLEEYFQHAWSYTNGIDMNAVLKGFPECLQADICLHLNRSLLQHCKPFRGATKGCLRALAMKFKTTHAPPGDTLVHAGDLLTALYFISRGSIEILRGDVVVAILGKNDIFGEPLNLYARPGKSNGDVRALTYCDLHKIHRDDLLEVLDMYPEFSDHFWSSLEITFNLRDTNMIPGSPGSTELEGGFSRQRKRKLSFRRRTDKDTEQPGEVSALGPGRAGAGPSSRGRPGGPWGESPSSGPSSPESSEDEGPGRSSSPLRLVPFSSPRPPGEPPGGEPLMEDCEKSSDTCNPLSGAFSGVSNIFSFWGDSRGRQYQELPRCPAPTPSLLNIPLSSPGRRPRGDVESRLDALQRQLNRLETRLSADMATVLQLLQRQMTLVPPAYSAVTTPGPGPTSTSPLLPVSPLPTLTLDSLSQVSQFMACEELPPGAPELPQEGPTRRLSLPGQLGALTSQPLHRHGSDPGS

Structure (SMILES)	hERG current change (%, negative = inhibition) at 10uM [%]
Cc1cc(C(F)(F)F)c(C#N)c(SCC(=O)Nc2nc3cc(Br)ccc3s2)n1	-9.88
CC(=O)c1c(C)[nH]c(C(=O)Nc2cccc(S(=O)(=O)N3CCOCC3)c2)c1C	0.822
Cc1oc(C)c(C(=O)O)c1COc1ccc(C(=O)O)cc1	4.8
Cc1ccc(-c2nnc(N3CCOCC3)c3ccccc23)cc1S(=O)(=O)NCC1CCCO1 (centres unmarked)	-17.9
Cc1cc(NC(=O)CSc2nnnn2-c2ccc(C(C)C)cc2)no1	0.634
COc1cc(C)ccc1OCCOCCOc1ccc([N+](=O)[O-])cc1	-54.8
CCNc1nc(-c2ccc(OC(F)F)cc2)c(C)s1	15.1
COc1ccc(C(=O)CSc2nnc(CNc3ccc(F)cc3)o2)cc1	12.2
CCOC(=O)c1c(NC(=O)CSc2nnc(C)o2)sc(C)c1C	-24.8
O=C(O)C1CN2CCC1CC2 (centres unmarked)	-2.72
COc1ccc(N(CC(=O)N2CCN(c3ccccc3)CC2)S(=O)(=O)c2c(C)noc2C)cc1	-2.81
C/C(=N\Nc1nc(N)cc(Cl)n1)c1ccc(Cl)c(Cl)c1	2.57
O=C(O)CC(c1cccc(O)c1)N1Cc2ccccc2C1=O (centres unmarked)	15.3
COc1ccc(N/N=C2/CCCCC2=O)cc1	12.1
COc1ccc(S(=O)(=O)N2CCC(C(=O)NCCc3c[nH]c4ccccc34)CC2)cc1	3.93
CC(C)COC(=O)CNc1n[nH]c(=S)[nH]c1=O	6.56
COc1ccc(NC(=O)CN2C(=O)NC3(CCCC3)C2=O)cc1Cl	-1.67
O=C(Nc1cccc(C(=O)N2CCCCCC2)c1)c1ccco1	-14.5
O=C(NC1CCN(Cc2ccccc2)CC1)C1CCCN(c2nnc(-n3cccc3)s2)C1 (centres unmarked)	-69.8
O=C1CN(C(=O)CC2C(=O)NCCN2Cc2ccccc2C(F)(F)F)CCN1 (centres unmarked)	13.5
CCOC(=O)c1cnc2nc(C)[nH]n2c1=O	8.85
CCOc1ccc(NC(=O)NCc2ccc3c(c2)OCO3)cc1	9.08
O=C(CSc1ncccn1)N1CCN(C(=O)CSc2ncccn2)CC1	-8.69

Structure (SMILES)	hERG current change (%, negative = inhibition) at 10uM [%]
O=C(c1cn(-c2ccccc2)nc1-c1cccnc1)N1CCCC(C(F)(F)F)C1 (centres unmarked)	-14.1
COc1cc(C)c(NC(=S)NCCCN2CCOCC2)cc1OC	-5.88
Cc1ccc(C(=O)N2CCN(S(=O)(=O)c3cc(Br)ccc3Br)CC2)o1	-23.9
O=C(O)CCC(=O)N1CCN(S(=O)(=O)c2cccs2)CC1	18
COc1cccc(Cn2c(=O)c3[nH]cnc3n(-c3ccccc3C)c2=O)c1	-1.8
Cc1cc(C)c(NC(=O)COC(=O)CCc2ccc(S(=O)(=O)N3CCCCC3)cc2)c(C)c1	11.5
C=CCN1C=CC=C/C1=C1\SC(=S)N(C)C1=O	11.5
COc1ccc(CC(=O)Nc2sc3c(c2C#N)CC(C)(C)NC3(C)C)cc1OC	-3.63
Cc1c(Cc2ccccc2)c(=O)oc2cc(OCC(=O)c3ccccc3)ccc12	5.32
COC(=O)C1=C(N)Oc2cc(C)n(Cc3cccnc3)c(=O)c2C1c1ccc(OC)c(OC)c1 (centres unmarked)	-19
O=C(CC1SC(=O)NC1=O)Oc1ccc(/C=N/NC(=O)c2ccccc2O)cc1 (centres unmarked)	-3.93
O=C(C[n+]1ccccc1)N/N=C/c1ccc(Cl)c(Cl)c1.[Cl-]	4.71
CCn1cc(C(=O)N[C@@H](CC(C)C)C(=O)NCCCn2ccnc2)c(=O)c2cc3c(cc21)OCO3	11.4
CCC(CC)C(=O)c1c[nH]c(C(=O)NCc2ccccc2)c1	0.153
O=c1c(-c2nn[nH]n2)coc2ccc(Cl)cc12	16.4
CCOc1ccc(CC(=O)NCc2cn3c(C)csc3n2)cc1	8.42
O=C(COC(=O)c1ccc(OC(F)F)cc1)NCCCN1CCCC1=O	-46.5
CCn1c(SCC(=O)N2CCCC(C)C2)nnc1-c1ccco1 (centres unmarked)	17
Fc1ccc(CNc2ncccn2)cc1	7.85
CN(CC(=O)Nc1ccccc1Cl)C1CCCCC1	-18.7
CCOc1ccc(NC(=O)CCC(=O)Nc2nnc(CC)s2)cc1	13.9
N#Cc1nc(COc2ccc(F)cc2)oc1N1CCC(Cc2ccccc2)CC1	0.354
Cc1ccc2nc(Cl)c(C3CC(c4ccco4)=NN3S(C)(=O)=O)cc2c1 (centres unmarked)	-62.6

Structure (SMILES)	hERG current change (%, negative = inhibition) at 10uM [%]
Cc1ccccc1-c1nnn(Cc2cccc(S(=O)(=O)N3CCOCC3)c2)n1	-7.43
O=C(COc1ccc2c(c1)OCO2)Nc1nncs1	10.6
C=CCc1ccccc1OCC(O)CN1CCN(Cc2ccc3c(c2)OCO3)CC1 (centres unmarked)	-91
COc1ccccc1CNC(=O)CCCn1nc(C)c2c(C)n(-c3ccccc3)nc2c1=O	-3.06
COc1cc(NC(=O)C2CC(c3ccc(Cl)cc3)=NO2)cc(OC)c1OC (centres unmarked)	7.7
Cc1cc(/C=C2\C(=O)NC(=O)N(Cc3ccccc3)C2=O)c(C)n1C1CC1	1.86
Cc1ccnc(NC(c2ccccn2)c2c(C)[nH]c3ccccc23)c1 (centres unmarked)	-16.2
Cc1ccccc1/C=N/Nc1ccnc2cc(Cl)ccc12	1.57
COC(=O)CNc1nc(Cl)nc(N2CCC(C)CC2)n1	-1.04
O=C(CCN1CCN(C(c2ccccc2)c2ccccc2)CC1)N/N=C/c1ccc(O)cc1	-54.8
O=C(CN(CC1CCCO1)C(=O)CNS(=O)(=O)c1ccc(F)cc1)NC1CCCCC1 (centres unmarked)	-4.3
COc1ccccc1CCNC(=O)CSc1nnc2ccc(-c3cccnc3)nn12	-49.6
CCOc1ccc(NC(=O)CCNC(=O)c2ccco2)cc1	6.08
O=C(CSc1ccc(F)cc1)NCC1(N2CCOCC2)CCCCC1	-24.2
O=C(CN1CCOCC1)NNC(=O)c1ccc([N+](=O)[O-])cc1	-4.4
CCOc1ccccc1N(CC(=O)NCCOC)C(=O)CCC(=O)Nc1ccccn1	19.6
Cc1ccc(C(=O)/C=C/Nc2ccc3c(c2)OCO3)cc1	15.9
COc1ccccc1Nc1cc(C)nc2c(C)ccc([N+](=O)[O-])c12	4.23
CC(C)Oc1ccc(C(CCN)C2CCCCC2)cc1.O=C(O)C(=O)O (centres unmarked)	-8.37
Cc1ccccc1N(C(=O)CNC(=O)c1ccco1)C(C(=O)NC1CCCC1)c1ccncc1 (centres unmarked)	13.1
CCCCCCn1c(O)c(C=Nc2ccccc2N2CCOCC2)c(=O)[nH]c1=S	13.6
C=CCN(C(=O)Cn1c(C(=O)OC)cc2oc(C)cc21)c1ccccc1	3.14
Cc1cc2ncn(-c3ncnc4scc(-c5ccccc5)c34)c2cc1C	-26.5

Structure (SMILES)	hERG current change (%, negative = inhibition) at 10uM [%]
O=C(CNC(=O)c1ccco1)Nc1ccc(S(=O)(=O)N2CCCC2)cc1	6.31
CC(=O)Nc1ccc2oc(-c3ccccc3Br)nc2c1	-3.6
COc1ccc(/C=N/NC(=O)c2ccc(CSc3nc(C)cc(C)n3)cc2)cc1O	-31.2
COc1ccc(/C(C)=N/NC(=O)CNC(=O)CCc2ccccc2)c(OC)c1	0.986
O=C(Nc1ccccc1)c1cc([N+](=O)[O-])ccc1NC1CCCCC1	-2.22
CCOC(=O)c1cc(-c2csc(-c3ccc(C(F)(F)F)cc3)n2)on1	8.29
NC(=O)c1c(NC(=O)c2ccccc2)sc2c1CCC2	18.5
CC(C)C(=O)Nc1nc2ccc(S(C)(=O)=O)cc2s1	5.14
Cc1[nH]nc(-c2ccc(OCc3cnn(-c4ccccc4)c3)cc2O)c1Oc1ccccc1F	16.8
O=Cc1c(Cl)nc2ccccn2c1=O	-4.27
O=C(NCC(=O)N(CC1CCCO1)C(C(=O)NC1CCCCC1)c1cccnc1)c1cccs1 (centres unmarked)	16.2
CCOC(=O)c1cn2nc(Oc3ccc(NC(C)=O)cc3)ccc2n1	7.29
CC(C)(C)NC(=O)COC(=O)c1snc(C(=O)NC2CCCCC2)c1N	-0.566
CCOc1ccc(N2C(=O)C(CC(=O)Nc3ccc(F)cc3)N(Cc3ccccn3)C2=S)cc1 (centres unmarked)	-3.11
O=c1[nH][nH]c(-c2ccccc2)c1C=Nc1ccc(F)cc1F	3.31
COc1cccc(/C=C/c2ccccn2)c1O	-6.31
CN(C)N1C(N)=C(C#N)C(c2ccc(F)cc2)C2=C1CC(C)(C)CC2=O (centres unmarked)	9.29
CCCN(CC(=O)Nc1ccccc1C)C(=O)Cc1cccs1	3.25
COC(=O)c1c(C)[nH]c(C(=O)N2CCN(c3ccc(OC)cc3)CC2)c1C	5.7
COC(=O)c1cc(NC(=O)/C=C/c2ccc3c(c2)OCO3)cc(C(=O)OC)c1	-3.81
